Source: PubChem BioAssay AID588855 (National Center for Advancing Translational Sciences (NCATS), 2011)
Among all 410,000 compounds or so, about 5,000 (1.2%) were called active. The shares of active, inactive and inconclusive entries below differ from those in the screen. Calls follow the shape of the dose curve; as a rule, active = well fitted inhibition curve with a large enough effect; inconclusive = small, poorly fitted or top-dose-only effect; inactive = no such curve, though single readings can be large or run the other way. Where the call is inconclusive, the potency comes from a doubtful curve fit.
% is scaled to controls: 0 for no effect and ±100 for the full control effect; potency is read from the fitted curve at half-maximal effect; tags tell the direction and shape of the fitted curve.

Experiment: qHTS for Inhibitors of TGF-b; also: nearly all actives have a fitted effect of over 65% in size
Conditions: HepG2 CAGA-GFP TGF-b/SMAD3 reporter, GFP fluorescence, 18 h, TGF-beta stimulated, 500 pg/mL final; series mostly up to 46.1 µM; activity, negative = inhibition: at the top concentration
Outline: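 HEPG2 CAGA-GFP, 1000 cells/well; 2 h settle, 37 C; cpd via pin tool; TGF-b 500 pg/mL final; 18 h, 37 C; GFP imaging ex488/em500-530; %Activity normalised to -TGF-b and +DMSO controls; CRC fit, curve class.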
For `Cc1ccccc1S(=O)(=O)Nc1nc2ccccc2nc1N1CCc2ccccc2C1`, the Potency was inconclusive: 25.1 µM [inhibitor, single point].
For `OCCCNc1ncnc2oc(-c3ccccc3)c(-c3ccccc3)c12`, the Potency was inconclusive: 35.5 µM [inhibitor, single point].
In the case of `Cc1cccc(NC(=S)N(CCCN2CCOCC2)C(C)c2cc3ccccc3o2)c1C` (stereo unspecified), the “activity, negative = inhibition” value is reported as inactive: -23.5%.
For `CCc1nn2c(-c3ccco3)ccnc2c1-c1ccccc1`, the Potency was inconclusive: 5.62 µM [inhibitor, single point].
With `CCc1ncc(CN2CCCC(C(=O)Nc3cccc(-c4cccc(C)c4)c3)C2)cn1` (stereo unspecified) the Potency was inconclusive: 35.5 µM [inhibitor, single point].
For `O=C(Nc1ccc(Cl)cc1C(F)(F)F)C(Sc1cccc[n+]1[O-])c1ccccc1` (stereo unspecified), the Potency was inconclusive: 20 µM [inhibitor, partial curve, poor fit].
In the case of `COc1ccc(C(=O)/C=C/c2ccc(F)cc2)c(OC(=O)c2ccc([N+](=O)[O-])cc2)c1`, the Potency is reported as inconclusive: 35.5 µM [inhibitor, single point].
For `CCN(CC(=O)Nc1c(F)cccc1F)C(=O)c1csc2c1CCCC2`, the “activity, negative = inhibition” value was inactive: -5.83%.
In the case of `CNS(=O)(=O)c1cn(CC(=O)N2CCN(c3ccc(C)cc3C)CC2)cc1S(=O)(=O)NC`, the “activity, negative = inhibition” value is reported as inactive: -10.3%.
For `CC(Oc1ccc(Cl)cc1Cl)c1ccnc(N)n1` (stereo unspecified), the “activity, negative = inhibition” value was inactive: -1.74%.
With `Cc1ccc(CSCCNC(=O)c2ccc(Cl)c(S(=O)(=O)N3CCOCC3)c2)cc1` the Potency was inconclusive: 5.01 µM [inhibitor, full curve, poor fit].
With `Cc1ccc(C2=NN(S(C)(=O)=O)C(c3cccs3)C2)cc1` (stereo unspecified) the Potency was inconclusive: 35.5 µM [inhibitor, single point].
In the case of `CC(OC(=O)c1cc2sccc2n1C)C(=O)NCc1cccs1` (stereo unspecified), the Potency is reported as inconclusive: 35.5 µM [inhibitor, single point].
For `C[C@H](CO)N1C[C@H](C)[C@@H](CN(C)S(=O)(=O)c2cn(C)cn2)Oc2ccc(NS(=O)(=O)c3ccccc3)cc2C1=O`, the “activity, negative = inhibition” value was inactive: 1.23%.
In the case of `CN(NC(=O)Nc1ccc(Cl)cc1)c1ncc(C(F)(F)F)cc1Cl`, the Potency is reported as inconclusive: 17.8 µM [inhibitor, single point].
For `CCOC(=O)c1oc2cc(O)ccc2c(=O)c1-c1ccccc1OC`, the “activity, negative = inhibition” value was inactive: 0%.
With `CN(c1ccccc1)C(CNS(=O)(=O)c1ccccc1)c1ccccc1` (stereo unspecified) the Potency was inconclusive: 22.4 µM [inhibitor, single point].
In the case of `COc1cc2ncnc(NCCCN3CCOCC3)c2cc1OC`, the “activity, negative = inhibition” value is reported as inactive: 1.67%.
With `O=S(=O)(Nc1nc2ccccc2nc1NCc1ccco1)c1ccc(F)cc1` the Potency was inconclusive: 35.5 µM [inhibitor, single point].
For `COc1cccc(CNC(=O)COC(=O)c2nc(Cl)c(Cl)c(Cl)c2Cl)c1`, the Potency was inconclusive: 15.8 µM [inhibitor, single point].
For `CCC1(c2ccc(F)cc2)NC(=O)N(CC(=O)N2CCc3ccccc32)C1=O` (stereo unspecified), the Potency was inconclusive: 35.5 µM [inhibitor, single point].
For `O=C(/C=C/Sc1ncn[nH]1)c1ccc(Cl)cc1`, the Potency was inconclusive: 11.2 µM [inhibitor, partial curve, poor fit].
For `Cc1cc(C)c2c(=O)n3c(nc2c1)C(CC(C)C)NC(=O)c1cccnc1-3` (stereo unspecified), the Potency was inconclusive: 15.8 µM [inhibitor, single point].
For `CCOc1cc2[nH]c(=S)n(CCN3CCCCC3CC)c(=O)c2cc1OCC` (stereo unspecified), the “activity, negative = inhibition” value was inactive: 1.84%.
For `CCOc1ccc(S(=O)(=O)Nc2ccc(C(=O)N3CCC3)cc2)cc1`, the Potency was inconclusive: 35.5 µM [inhibitor, single point].
With `CC(C)Cn1c(CN(C)Cc2ccccc2)nc2c1c(=O)n(C)c(=O)n2C` the “activity, negative = inhibition” value was inactive: -0.208%.
For `O=C(CSc1nc(-c2ccccc2Cl)ns1)c1ccc(Cl)cc1`, the Potency was inconclusive: 35.5 µM [inhibitor, single point].
In the case of `CCCCC1CC2=C(C(=O)OC(C)(C)O2)C(c2ccc(Cl)cc2)O1` (stereo unspecified), the Potency is reported as inconclusive: 35.5 µM [inhibitor, single point].
With `COc1ccc2c(c1)c(=O)c(C(=O)c1ccc(C)cc1)cn2Cc1ccccc1F` the Potency was inconclusive: 25.1 µM [inhibitor, single point].
For `COc1ccccc1NC(=O)CN1CCN(CC(=O)Nc2ccc(F)c(F)c2)CC1`, the Potency was active: 6.31 µM.
For `COC(=O)c1ccccc1NC(=O)c1nc(S(=O)(=O)Cc2ccccc2)ncc1Cl`, the “activity, negative = inhibition” value was inactive: 0.824%.
For `CC(Cc1cccs1)NC(=O)Nc1ccc(F)cc1` (stereo unspecified), the “activity, negative = inhibition” value was inactive: -0.35%.
In the case of `COc1cc(OC)cc(-c2nc3ccccc3c(=O)n2OC(=O)c2ccccc2C)c1`, the Potency is reported as inconclusive: 35.5 µM [inhibitor, single point].
In the case of `Cc1cc2cc(CCNC(=O)CC(C)(C)C)c(=O)[nH]c2cc1C`, the Potency is reported as inconclusive: 20 µM [inhibitor, single point].
For `COc1ccc(C2c3c(-c4ccccc4O)n[nH]c3C(=O)N2CCc2ccccc2)cc1` (stereo unspecified), the Potency was inconclusive: 35.5 µM [inhibitor, single point].
For `COC(=O)c1ccc(Cl)cc1NC(=O)Nc1nnc(N(C)Cc2ccccc2)s1`, the “activity, negative = inhibition” value was inactive: -4.38%.
In the case of `CC(C)C[C@H]1CN=C(Nc2ccccc2)N1CC1CCC(C(C)(C)C)CC1` (stereo partly specified), the Potency is reported as inconclusive: 35.5 µM [inhibitor, single point].
For `CCCCn1c2ccccc2c2cc(CC(N)=O)ccc21`, the Potency was inconclusive: 1.26 µM [inhibitor, full curve, poor fit].
With `N#C/C(=C\C=C\c1ccccc1[N+](=O)[O-])C(=O)NC1CCCCC1` the Potency was inconclusive: 12.6 µM [inhibitor, partial curve, poor fit].
For `Cc1ccc(C)c(NC(=O)CSc2nnc(C)n3c2cc2occc23)c1`, the Potency was inconclusive: 7.08 µM [inhibitor, partial curve].
With `CN(C)C(=O)CCc1ccc2c3c([nH]c2c1)[C@]1(CCC2CCCC2)[C@@H](C(=O)N2CCOCC2)C[C@H](CC(=O)NCCCn2ccnc2)C(=O)N1CC3` the “activity, negative = inhibition” value was inactive: 30.4%.
With `CCc1nc2cc(C)nn2c2nc3ccccc3n12` the Potency was inconclusive: 25.1 µM [inhibitor, single point].
In the case of `CCC/C=C(\CCC)C(NS(=O)(=O)c1cccc2cccnc12)c1ccc(C(=O)OC)cc1` (stereo unspecified), the Potency is reported as inconclusive: 12.6 µM [inhibitor, partial curve, poor fit].
In the case of `Cc1cc(C)cc(NC(=O)C(=O)NCC(c2cccnc2)N2CCc3ccccc32)c1` (stereo unspecified), the Potency is reported as inconclusive: 11.2 µM [inhibitor, partial curve, poor fit].
In the case of `C=CCn1c(COc2cccc(C)c2C)nnc1SCC(=O)N1CCN(c2ccccc2)CC1`, the Potency is reported as active: 4.47 µM.
In the case of `OCCN(CCO)c1ccc(C(c2ccc(Cl)cc2)c2ccc(N(CCO)CCO)cc2Cl)c(Cl)c1`, the Potency is reported as inconclusive: 35.5 µM [inhibitor, single point].
In the case of `O=C(N/N=C/c1cc(Br)cc(Br)c1O)c1ccncc1`, the Potency is reported as inconclusive: 10 µM [inhibitor, partial curve, poor fit].
With `CCCC[C@@H]1CNC(=O)C(=O)N1CCc1cc(C(F)(F)F)cc(C(F)(F)F)c1` the Potency was inconclusive: 1.58 µM [inhibitor, partial curve, poor fit].
With `Cc1ccc(-c2cc(C(F)F)nc(NCc3cccs3)n2)cc1` the Potency was inconclusive: 25.1 µM [inhibitor, single point].
In the case of `O=C(Oc1coc(CSc2ncccn2)cc1=O)c1cccc([N+](=O)[O-])c1`, the “activity, negative = inhibition” value is reported as inactive: 3.27%.
In the case of `CC(C)CC(C(=O)Nc1oc(-c2ccccc2)c(-c2ccccc2)c1C#N)N1C(=O)c2ccccc2C1=O` (stereo unspecified), the Potency is reported as inconclusive: 22.4 µM [inhibitor, single point].
With `CC(C)C1C(=O)N(Cc2cn(Cc3ccco3)nn2)CCS(=O)(=O)N1Cc1ccc(-c2ccc(Cl)cc2)cc1` (stereo unspecified) the Potency was inconclusive: 35.5 µM [inhibitor, single point].
For `Cc1ccccc1OCC(=O)Nc1nc(-c2ccncc2)cs1`, the “activity, negative = inhibition” value was inactive: -4.71%.
With `O=C(Nc1cc(C(F)(F)F)ccc1N1CCOCC1)C1CCCO1` (stereo unspecified) the Potency was inconclusive: 35.5 µM [inhibitor, single point].
In the case of `CCCC(O)(c1ccc(Cl)cc1)C(CN1CCOCC1)c1ccccc1` (stereo unspecified), the Potency is reported as active: 12.6 µM.
In the case of `COc1ccc(N2CCN(C(=O)c3ccc4c(c3)N(Cc3cc(C)ccc3C)C(=O)c3ccccc3S4=O)CC2)cc1` (stereo unspecified), the Potency is reported as inconclusive: 35.5 µM [inhibitor, single point].
With `O=S(=O)(c1ccccc1)N1N=C(c2ccc(O)cc2)CC1c1ccco1` (stereo unspecified) the Potency was inconclusive: 35.5 µM [inhibitor, single point].
In the case of `Cc1cccn2c(=O)c(/C=C(\C#N)C(N)=O)c(N3CCN(c4ccccc4)CC3)nc12`, the Potency is reported as inconclusive: 25.1 µM [inhibitor, single point].
With `CCOC(=O)C1CCN(Cc2ccccc2C)CC1` the Potency was inconclusive: 6.31 µM [inhibitor, single point].
For `COc1ccc(Cl)cc1NC(=O)CNC(c1ccccc1)c1ccccc1`, the Potency was inconclusive: 35.5 µM [inhibitor, single point].
For `COc1ccc(-c2nn3c(-c4cc(-c5ccccc5)n[nH]4)nnc3s2)cc1OC`, the “activity, negative = inhibition” value was inactive: 6.35%.
For `O=C(COC(=O)c1cc(Cl)ccc1O)NCC1CCCO1` (stereo unspecified), the “activity, negative = inhibition” value was inactive: 2.81%.
For `CCOc1ccc(-c2nc(S(=O)(=O)c3ccccc3)c(N3CCC(C(N)=O)CC3)o2)cc1`, the “activity, negative = inhibition” value was inactive: -2.12%.
In the case of `COc1ccc(S(=O)(=O)N2CCCCCC2)cc1C(=O)N(C)Cc1ccc(F)cc1`, the “activity, negative = inhibition” value is reported as inactive: 7.25%.
In the case of `COc1cc(OC)nc(Nc2nc(C(N)Cc3ccc(Cl)cc3)cs2)n1` (stereo unspecified), the Potency is reported as inconclusive: 35.5 µM [inhibitor, single point].
For `Cc1ccc(S(=O)(=O)c2nc(-c3ccco3)oc2N2CCC(C)CC2)cc1`, the Potency was inconclusive: 35.5 µM [inhibitor, single point].
